# Assay results as given in PubChem BioAssay AID651820 (National Center for Advancing Translational Sciences (NCATS), 2012).
# The campaign covered roughly 340,000 compounds. About 12,000 (3.5%) were called active. Inconclusive means that the source gave no clear call. Such entries were picked first, then a sample of the others. Calls follow the shape of the dose curve; as a rule, active = well fitted inhibition curve with a large enough effect; inconclusive = small, poorly fitted or top-dose-only effect, or another doubt; inactive = no such curve, though single readings can be large or run the other way. No potency is given beside an inconclusive call; the fits are too rough.
# Assay: qHTS Assay for Inhibitors of Hepatitis C Virus (HCV)
# Details: Huh7.5.1 HCVcc-Cre (HCVcc is cell-culture hepatitis C virus) infection, luciferase reporter, 44 h; series mostly up to 41.8 µM
# Outline: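 Cells (1,000/well) were plated 4 h before compound, then infected with HCVcc-Cre virus (~0.5 moi). After 44 h further culture, infection was read as luciferase luminescence following a 15 min substrate incubation at room temperature.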
# Potency is read from the fitted curve at half-maximal effect; tags tell the direction and shape of the fitted curve.
row,Compound,Potency
1,Cc1nc(C)c(-c2ccc(SCC(=O)Nc3ccccc3)nn2)s1,"inconclusive [inhibitor, single point]"
2,CC(=O)c1cc(-c2ccccc2)n(CC(=O)Nc2cccc(C)c2C)c1C,"inconclusive [inhibitor, partial curve]"
3,CC1(C)OC(=O)N(c2ccccc2)C12C=Cc1c(ccc3ccccc13)O2 (configuration not stated),inactive
4,CN(C)CCNC(=O)c1sc2nc(-c3ccccc3)cc(C(F)(F)F)c2c1N,active: 10 µM
5,C=CCn1c(COc2ccccc2F)nnc1SCC(=O)N1CC(=O)Nc2ccccc21,"inconclusive [inhibitor, single point]"
6,CCc1ccc(NC(=O)CN2CCC(C(=O)c3ccc(OC)cc3)CC2)cc1,"inconclusive [inhibitor, partial curve]"
7,CCN(C(=O)COc1cc(=O)n(CC)c2ccccc12)c1cc(Cl)ccc1OC,"inconclusive [inhibitor, single point]"
8,CCN1CCN(c2ccc(S(=O)(=O)N3CCOCC3)cc2NC(=O)CC(NC(C)=O)c2ccccc2)CC1 (configuration not stated),inactive
9,c1ccc(Nc2nc(-c3ccncc3)nc3ccccc23)cc1,"inconclusive [inhibitor, full curve]"
10,O=C(NC1CCCCC1)N1CCCC(c2nc(-c3cccs3)no2)C1 (configuration not stated),"inconclusive [inhibitor, single point]"
11,CCOc1ccc(NC(=O)Nc2ccc3c(c2)nc(C)n3C)cc1,inactive
12,O=C(N/N=C/c1cccc(O)c1)c1ccc(COc2cccc3cccnc23)cc1,"inconclusive [inhibitor, single point]"
13,COc1cc(SC)ccc1C(=O)Nc1cccc(C2OCCCO2)c1,"inconclusive [inhibitor, single point]"
14,Cc1ccccc1OCCCC(=O)Nc1nccs1,active: 11.2 µM
15,Cc1ccc(C2=CC(=O)C[C@H](c3ccc(F)cc3)C2)cc1,"inconclusive [inhibitor, single point]"
16,Cc1ccc(Nc2nc(C(=O)NCCCN3CCOCC3)cs2)cc1,"inconclusive [inhibitor, partial curve]"
17,COc1cccc(C(=O)N2CCN(CCCc3ccccc3)CC2)c1OC,active: 35.5 µM
18,CC/C(=N/Nc1ccccc1Cl)c1cnnc(-c2ccccc2)n1,"inconclusive [inhibitor, partial curve, poor fit]"
19,N=C1/C(=C/c2ccc(-c3cccc(C(=O)O)c3)o2)C(=O)N=C2SC(CC(=O)N3CCOCC3)=NN12,inactive
20,O=C(Nc1ccncc1)C1CCN(S(=O)(=O)c2ccccc2C(F)(F)F)CC1,"inconclusive [inhibitor, partial curve]"
21,CN1CCc2c(c3c(n2C)CCN(C)[C@@H]3c2cccnc2)[C@H]1c1cccnc1,inactive
22,Oc1ccc2ccccc2c1N=Nc1ccccc1F,"inconclusive [inhibitor, partial curve]"
23,Cc1nc(N2CCN(Cc3ccc(Cl)cc3)CC2)c2oc3ccccc3c2n1,active: 8.91 µM
24,COc1ccc2c(c1)c(CC(=O)Nc1ccc(C)cc1)c(C)n2C(=O)c1ccc(Cl)cc1,inactive

row,Compound,Potency
1,Cc1cccc(N2CCN(C(c3ccccc3)c3nnnn3CC3CCCO3)CC2)c1C (configuration not stated),"inconclusive [inhibitor, single point]"
2,CN(C)c1ccc(/C=C(\C#N)c2ccccc2)cc1,"inconclusive [inhibitor, partial curve]"
3,O=C(CCl)c1ccc2c(c1)CCN2C(=O)C1CCCCC1,"inconclusive [inhibitor, single point]"
4,Cc1cccc(NC(=O)CN2C(=O)N/C(=C/c3cc(C)n(C(C)C)c3C)C2=O)c1,"inconclusive [inhibitor, single point]"
5,CCOC(=O)c1c(N)sc(C(=O)Nc2ccccc2)c1C,active: 11.2 µM
6,COc1ccccc1Nc1nc(-c2c(C)[nH]c3ccccc23)cs1,"inconclusive [inhibitor, partial curve]"
7,CCc1cc2cc3c(cc2nc1SCC(=O)Nc1nnc(C)s1)OCCO3,"inconclusive [inhibitor, partial curve]"
8,O=C(CCl)Nc1cn(-c2ccccc2)nc1-c1ccccc1,active: 2.82 µM
9,COc1cc(O)c(C(CC(=O)N2CCN(c3ccccc3)CC2)c2ccc3c(c2)OCO3)c(OC)c1 (configuration not stated),"inconclusive [inhibitor, single point]"
10,COc1ccccc1C1C=C(c2ccc(Cl)cc2)Nc2nc(NS(C)(=O)=O)nn21 (configuration not stated),inactive
11,COc1cc(OC)c(/C=N/N2CCN(c3ccccc3OC)CC2)c(OC)c1,inactive
12,Cc1ccc(CNC(=O)c2ccc([N+](=O)[O-])o2)cc1,"inconclusive [inhibitor, single point]"
13,CC(C)NC(=O)C(Cc1ccccc1)N1C(=O)c2ccccc2C1=O (configuration not stated),inactive
14,O=C(COc1ccc(F)cc1)NCC1CCCO1 (configuration not stated),inactive
15,COc1cccc(CC2(CO)CCCN(S(=O)(=O)N(C)C)C2)c1 (configuration not stated),inactive
16,O=C(NCC1COc2ccccc2O1)C1CCCN(S(=O)(=O)c2cccc3nsnc23)C1 (configuration not stated),"inconclusive [inhibitor, partial curve, poor fit]"
17,Nc1cc(=O)[nH]n1C1CCCCC1,inactive
18,COc1ccc(-c2cc(C(=O)Nc3cc(Cl)ccc3O)no2)cc1,inactive
19,CCOC(=O)C1(Cc2cccc(OC)c2)CCN(Cc2cccc3cnccc23)CC1,"inconclusive [inhibitor, single point]"
20,O=C(N/N=C/c1ccccn1)c1ccc([N+](=O)[O-])cc1Cl,inactive
21,CCCCCCC1/C(=N\NC(=O)c2ccccc2)CCC1C(=O)OC (configuration not stated),inactive
22,CCCS(=O)(=O)c1nc(S(=O)(=O)c2ccc(C)cc2)c(N2CCN(CC)CC2)s1,inactive
23,COc1ccc(N2CCN(C(CNS(=O)(=O)c3ccc(C)cc3)c3ccccc3)CC2)cc1 (configuration not stated),"inconclusive [inhibitor, single point]"
